According to publication PMC12056497:
No constants are given. Whether binding was seen depends on the method and setting. Binding seen in cells or lysates may run through a third protein. Some results given as binding are weak or reduced against the parent protein; the word gives no strength. For some assays here: Tags and fused reporters may be left off the sequences shown.

By UniProt entry, the sequences of proteins in these tests, tags left out. Where a name states a change or a piece, a line headed by the entry shows the natural chain unless it says otherwise.
UniProt P16520: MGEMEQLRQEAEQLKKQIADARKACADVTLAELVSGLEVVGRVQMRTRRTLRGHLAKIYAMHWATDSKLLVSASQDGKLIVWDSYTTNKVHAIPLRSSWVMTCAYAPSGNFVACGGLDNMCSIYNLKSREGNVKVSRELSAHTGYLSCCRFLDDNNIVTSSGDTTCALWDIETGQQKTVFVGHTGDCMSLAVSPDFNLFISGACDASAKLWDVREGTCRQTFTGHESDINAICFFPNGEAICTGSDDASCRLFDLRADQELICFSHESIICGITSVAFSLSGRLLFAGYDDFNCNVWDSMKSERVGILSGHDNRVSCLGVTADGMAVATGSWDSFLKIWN
UniProt Q9NPQ8: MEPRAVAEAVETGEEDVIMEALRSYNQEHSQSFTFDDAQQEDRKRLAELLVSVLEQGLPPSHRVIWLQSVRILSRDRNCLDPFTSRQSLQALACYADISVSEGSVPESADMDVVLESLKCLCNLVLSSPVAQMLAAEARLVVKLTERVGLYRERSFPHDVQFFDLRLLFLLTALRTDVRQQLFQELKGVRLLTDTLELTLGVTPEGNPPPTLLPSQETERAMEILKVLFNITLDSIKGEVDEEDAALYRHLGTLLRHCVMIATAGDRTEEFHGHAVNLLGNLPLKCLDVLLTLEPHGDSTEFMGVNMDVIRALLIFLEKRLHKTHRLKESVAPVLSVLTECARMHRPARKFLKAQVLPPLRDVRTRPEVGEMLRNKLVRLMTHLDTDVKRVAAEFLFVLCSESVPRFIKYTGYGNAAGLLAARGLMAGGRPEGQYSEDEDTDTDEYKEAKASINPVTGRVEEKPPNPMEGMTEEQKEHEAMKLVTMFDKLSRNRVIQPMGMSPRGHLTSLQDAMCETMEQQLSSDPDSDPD
UniProt P09471: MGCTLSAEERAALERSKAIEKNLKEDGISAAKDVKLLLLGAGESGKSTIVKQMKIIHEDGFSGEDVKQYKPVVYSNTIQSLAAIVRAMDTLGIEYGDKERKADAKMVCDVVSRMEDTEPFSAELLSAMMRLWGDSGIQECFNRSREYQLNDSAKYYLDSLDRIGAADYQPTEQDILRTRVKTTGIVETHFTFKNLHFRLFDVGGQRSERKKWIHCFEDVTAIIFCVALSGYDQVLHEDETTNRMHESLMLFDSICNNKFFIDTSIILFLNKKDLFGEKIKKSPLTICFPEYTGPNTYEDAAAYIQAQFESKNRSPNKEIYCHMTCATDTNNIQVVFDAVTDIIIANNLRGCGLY

Experiments:
[1] = molecular target: Gβ3γ9 heterodimer (Venus tag on the Gγ9 subunit, from the Go1-CASE plasmid) (UniProt P16520); assay: FRET or BRET; Gβ3γ9 displacement assay: HEK293T co-transfected with the Go1-CASE plasmid and pcDNA3.1 or nontagged Gαo (1:3 ratio); loss of net BRET signal = displacement of the tagged Gαo from Gβγ
GFP-Ric8A = GFP-Ric8A (UniProt Q9NPQ8); assay: co-IP; cells (N2a by the results, HEK293T by the methods) co-transfected with GFP-Ric8A and untagged Gαo; IP with a recombinant GST-tagged nanobody against GFP; Western blot with anti-GFP and anti-Gαo
EGFP-RGS19 = molecular target: T1, EGFP-RGS19 (UniProt P49795); assay: co-IP; HEK293T co-transfected 24 h with GFP-RGS19 and nontagged Gαo at equal plasmid ratios; IP with a recombinant GST-tagged nanobody against GFP; Western blot with anti-GFP and anti-Gαo
T1 sequence: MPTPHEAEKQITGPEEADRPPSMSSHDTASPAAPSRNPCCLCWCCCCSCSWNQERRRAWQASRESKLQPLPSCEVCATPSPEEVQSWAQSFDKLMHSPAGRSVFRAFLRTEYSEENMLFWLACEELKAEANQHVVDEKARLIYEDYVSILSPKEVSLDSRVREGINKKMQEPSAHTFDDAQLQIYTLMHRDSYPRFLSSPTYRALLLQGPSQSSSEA

NLuc-RGS19 = molecular target: T2, NLuc-RGS19 (UniProt P49795); assay: FRET or BRET; HEK293T co-transfected with NLuc-RGS19 and Gαo internally tagged with GFP at Gly92 (1:5 ratio); furimazine 10 µM; NanoBRET filter
T2 sequence: T1 sequence

Substance | binding [1] | binding (GFP-Ric8A) | further results
Gαo C225R, nontagged (p.(Cys225Arg)) (from UniProt P09471-1 1-354) | no binding | binds | –
Gαo C225Y, nontagged (p.(Cys225Tyr)) (from UniProt P09471-1 1-354) | no binding | binds | –
Gαo G203R, nontagged (highly pathogenic variant, positive control) (from UniProt P09471-1 1-354) | – | binds | –
Gαo Q205L, nontagged (constitutively active) (from UniProt P09471-1 1-354) | – | – | binding (EGFP-RGS19): binds
Gαo wild-type, NanoLuc-tagged (from the Go1-CASE plasmid) (from UniProt P09471 1-354) | binds | – | –
Gαo wild-type, nontagged (in pcDNA3.1+) (from UniProt P09471-1 1-354) | binds | – | binding (EGFP-RGS19): binds
Gαo^G92-GFP Q205L (from UniProt P09471-1 1-354) | – | – | binding (NLuc-RGS19): binds
Gαo^G92-GFP wild-type (internal GFP-tag at Gly92) (from UniProt P09471-1 1-354) | – | – | binding (NLuc-RGS19): binds
